The chains are these.
B1: traf2_out_6_156_2444 (protein)
chain: MKEEILEETKKKLKELIKKLSEASEEKKIIYISKIAGTVYKALQKLRDAGFSLEEIKEFAEEINKFIKEELKKYGLDEKTANLTLSSINAVFEVALEEAK
B2: traf2_out_9_108_2577 (protein)
chain: MTREEKLEEIFEAVKKLAEEFLEENDLSEELKEDLKAAIEQAEKLYKEGEKETAIILLAISLANTAYKVGEEAVEKVLARLKEIDPRAYSAARRMVELLK
B3: traf2_out_18_3_1926 (protein)
chain: SAEELQEVSDRIDEIIDEARAKAREALARIRARHPEEAARVDELEALLDAGAGPFGILRELAELAKELGDEELAEELEEFLKEKSRELSELVDEYLKLRK
B4: traf2_out_6_156_2402 (protein)
chain: MVEEILEETNAEVEKLIKELAAASEEKKIAYISKIAGTVYRGLQRLREAGASVEELKAFGEKVNKELEKWLDKEGLPQSIKDLILSSVNAVFDVALAEAA
B5: traf2_out_13_95_1072 (protein)
chain: TKELAEKINEIADRAEERALALLAAAKAELAGDPAAVAVLDEAARLARTRGIRAAIHLLRQAKAANPAHAAAFDALIAELEAIRREAGREVARLIKEYEE
B6: traf2_out_13_95_1184 (protein)
chain: SEETKKKINEIADDMLEKVEKILTELAEKVKDDPEVKKAVEEIKKTAVTKGIHTAIGELKELAKKYPEYKELINEAIEKIEEIRREAGKKVAEILKEEEE
B7: traf2_out_13_95_1187 (protein)
chain: EEEKRKRYREVTNAIADELLDHADELIDRITAATGDEALGAELRRVLNRYGVSALIHFIREKAEEDPEHKELYERAARELEEKRREAGRRVAEAEKEIEA
B8: traf2_out_11_155_709 (protein)
chain: SKELEINQKLVDEVSEIADEALEKLEKLIEEIEKRDPEVAAELRAVLEANKDAGYRTKLLLAIAVLKKAGYEEEAKEVEKILEEAQKKANELAKEAEKKK
B9: traf2_out_18_117_1805 (protein)
chain: SDLAAAQAAFAAAVAAFEAERRRAQRVAGQLIEKHPHNLPEEATDAMVEFGEAARRHAELVQTAAAHADDLATLKALTAEVEALTARMREIRDRLEELLK
B10: traf2_out_13_95_1069 (protein)
chain: SAETAAKINALADEAEARVLALLDAARAALADDPEAVAALDAARRAAETRGISAAIHLLRQARAAQPAHAAAFDALIAELEAIRRELGRKVAEILKEEKE
B11: traf2_out_8_174_2573 (protein)
chain: AEAERLRIVADVATEFADILDEAEKKLEALKDLPLEELKKEAEKIKKEALAKIDEITAKYTAQVDAETAALINRVANSAKTQIENMVKGFIERKKLKEEA
B12: traf2_out_20_3_2195 (protein)
chain: SELEKKLEEELEEAIKLLKEAAKLADEETAKVIEELIKRIKESRSLSYSDQLVVLSEVRREVLLLAEEARKAGDEELAKVLEEAAEELNEAMNILYEIIK
B13: traf2_out_18_3_1898 (protein)
chain: SEEKLKEISEKIDEIIDEVTAKAREVLDWLEKNKPEVKERIAALRADLEAGAGPFGILRELARLAKEAGEEEKAKEIEEFLKEKSKELQELVDEYLELRA
B14: traf2_out_6_156_2388 (protein)
chain: MKEEILKETKEKLDELIKEMSKAPEEKKIVWINKIAGVVYRALQRLREAGASLEELKKFSEEIREHLEESAKKYGLPEDVKNLLLSSINAVFEVALEEAK
B15: traf2_out_17_178_1721 (protein)
chain: SKEEYRKKISELTDELIDLSEAAAARLLALARAEGTLSPEELAALEAARRRGSPNDVLALGERAAPRLASAAEAQALLDAFRKESRALAKEIAAAYEKYE
B16: traf2_out_5_189_2318 (protein)
chain: SPAAEEQAEDRALARRLAARARALLAELRARGASPEEIKEAVLAEIRKLPIEEAQLYTGIVYAIGTNIAEVEGDEALKAAFEEMRKEALALIAEREKAAA
B17: traf2_out_11_169_826 (protein)
chain: EEAERNRKINEKALELNDEAVKKLEEFALKLAKEAGLDVEAVKAIFEKNKGKSLSAIAAELIRYFTSLGKEEEAKKVLEKYEELKEEINKEMSKFLKELE
B18: traf2_out_1_158_909 (protein)
chain: STDVGLLASSVTSVLDVWAEEAKERGLERAAALFEELREEVLRLYEENKDASLEEMAEKVRELVEEFERRAEELDEEERELVRRAFRQIRSAIDQVVRLA
B19: traf2_out_6_156_2387 (protein)
chain: KKEEILEKAKKEIKELIEKLSKAPESKKIAYINKIAGTVYRALQQLRDLGASLEELEAFTKEVIEFVKKLMEENGLDESTKNLIIGSINAVGEVALEEAK
B20: traf2_out_11_155_715 (protein)
chain: EEKKKLNQELVDEVMAIADRAMAELEALIARVAAEDPEVAARLRAVLAANSDHGYTTKLLLAARVLREAGLEEEAAEVEAILARAQAEMNKLYKEYEKKL
B21: traf2_out_17_178_1687 (protein)
chain: TKEEQRKRISALTDELIDLTEATGAELLAIARAEGTLTPEELAALEAARRAGSNRTFLALAERIAPKLKTAAEARALLDAFRARAAALSAEIAAAYEKYE
B22: traf2_out_11_169_784 (protein)
chain: EEEEKNRKFNDFALEKEDEAKKELKKFALELAKKSGLDVEEVEKIFEDNKGKSLSAIAAALIKYFKEKGNEESAKAILEKYEELQEKINKEGSAFLKELE
B23: traf2_out_3_89_2291 (protein)
chain: SMEKEKKIKEAKERAERYVKGFEKNARRVAKEMLEEGHSLETLRGVLEAARTAIVETFGETLKEEGIDKETRDKILEELKKKLDEIVEEVVEEAKKRREE
B24: traf2_out_6_166_2470 (protein)
chain: EEEKLRRIREIVERLGEYPAEIVIEAFERLAEERDDRRALLARQIASGVRQGQKAGLPVSTILSAFADGMIALGVPIEEILELFEEALEIAEELAEEREE
B25: traf2_out_5_63_2352 (protein)
chain: SERDELTALAREADRLALAALKAREAGNEEEADRLLEEAVEDPELARLVIGILRGLARYYELRGDKPEQAKLARELAERLAARLAAREAAAAAAAEAAAA
B26: traf2_out_19_177_1993 (protein)
chain: SALEADREINKYANERNDEFEAAADALLARRPSLTPEEFLAAAIAVLREHLVVNTRIAARILEAAPPEYRPELLAAYEESKERANEELSKKMKEIEAKYA
B27: traf2_out_16_171_1441 (protein)
chain: SMEEREEELKKEIEEEAKRLIERMETAVEMAPLISKETGLTMEQIAAGFRSTMTDRIEAFREHFLKKAEDLSEEVKEYIEEKVKEMEKALEKAVKEILAL
B28: traf2_out_20_38_2008 (protein)
chain: SMEEEEKKREEHLIEVANAAYDEAEAEVAALKAAGKTVDEIAAATKARVRELLTAAGLEEEAAELVEDVDIAAKSPDAERLLVRILARAVTLVEQKKLQE
B29: traf2_out_20_3_2094 (protein)
chain: EELLKKLEEELKEAEELLKEAIKLADEETAKKLKKLLAKLKAAKELPLDDQLVALSEVRRETLELAEKAREEGKEELAEILEEAAEEINRAMNLAYKILE

Over roughly 1,800 sequences, “median log2 fold change of GCK-ALFA target abundance (FLAG IP / Myc IP barcode read proportion)” has its median near 0.14; the lowest 2% begin near -0.84. This is one part of the list.

For this experiment, the target named is T1, TRAF2, Q12933.
T1 chain: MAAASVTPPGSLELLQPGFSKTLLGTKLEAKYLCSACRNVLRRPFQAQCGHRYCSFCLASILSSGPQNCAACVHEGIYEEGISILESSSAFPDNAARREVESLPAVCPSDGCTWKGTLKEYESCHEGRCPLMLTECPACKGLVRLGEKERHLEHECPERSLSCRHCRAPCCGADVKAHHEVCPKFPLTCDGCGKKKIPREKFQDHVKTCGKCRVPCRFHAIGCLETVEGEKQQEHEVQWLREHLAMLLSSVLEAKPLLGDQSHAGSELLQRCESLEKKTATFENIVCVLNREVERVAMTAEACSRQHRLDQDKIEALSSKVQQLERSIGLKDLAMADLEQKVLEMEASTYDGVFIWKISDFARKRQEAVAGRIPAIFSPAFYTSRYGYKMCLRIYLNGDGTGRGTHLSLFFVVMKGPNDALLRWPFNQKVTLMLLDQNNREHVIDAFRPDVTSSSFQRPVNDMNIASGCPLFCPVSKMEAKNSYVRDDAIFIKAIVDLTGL
The experiment in a line: median log2 fold change of GCK-ALFA target abundance (FLAG IP / Myc IP barcode read proportion) (log2 ratio); each designed protein is fused to an ALFA-tag nanobody in HEK293 cells to bring the named protein to FLAG-tagged glucokinase (GCK); Myc marks an untargeted standard; higher = target protein stabilised (more abundant). The conditions noted are these: target protein: 3xFLAG-MCP-GCK-ALFA reporter; HEK293 landing pad (RPLP). The gist of the method: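 Binders fused to an ALFA nanobody were recombined as a library into HEK293 landing-pad cells, which were induced with 2 μg mL^−1 doxycycline and then transfected to express a FLAG-tagged target and a Myc-tagged standard. After 48 h, circular RNA barcodes recovered by anti-FLAG and anti-Myc immunoprecipitation of lysates were reverse transcribed, amplified and sequenced. Each binder's target abundance is the median log2 ratio of FLAG to Myc barcode read proportions, from barcodes present at ≥10^−7 in both replicates, binders carrying ≥3 barcodes per replicate, a 10^−6 pseudocount and pooled replicates.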
Consider B1, for which the “median log2 fold change” value was -0.0805.
As for B2, the figure is -0.396.
As for B3, the figure is -0.0573; as for B4, 0.00841; as for B5, -0.606.
Regarding B6, the “median log2 fold change” value was -0.726.
As for B7, the figure is -0.0218.
The same measure for B8: 0.502.
As for B9, the figure is 0.223; as for B10, -0.107; as for B11, 0.318.
For the molecule B12, the “median log2 fold change” value was 0.098.
For B13, the “median log2 fold change” value is -0.192.
For B14, the “median log2 fold change” value was 0.0494.
As to B15, the “median log2 fold change” value stood at 0.0361.
As for B16, the figure is 0.171; as for B17, 0.166.
As for B18, the figure is 0.175.
Take B19: the “median log2 fold change” value was -0.104.
The same measure for B20: 0.284; for B21: 0.128.
The same measure for B22: -0.181.
As for B23, the figure is -0.996.
For B24, the “median log2 fold change” value was -0.369.
As to B25, the “median log2 fold change” value was 0.253.
As for B26, the figure is 0.176; as for B27, 0.00959.
As for B28, the figure is 0.328.
As for B29, the figure is -0.11.

(Values after the supplement of paper PMC12632987.)
